Results as given in the RNAGym collection of RNA variant scans (doi:10.7554/elife.90254).
Read counts are not given, so values of variants with three or more changes are uncertain.

B1: LINE1-full (parent)
chain: UACGUAGGUGGUUUUCCCCUGAUAGUGCUAAGGGGGCCUGGAAGUUUGGACUGGGCAGAGCUCAACACAGCGUGGCAAAGUGGCUGUGGCUAGACUGCCUCUCUGGAUUCCUCGUCACUCAGCAGGGCAUCUCUGAGAGAAAUGCC

Variants of: B1
Assay: self-cleavage, relative activity (ratio to wild type); higher = more cleavage; in vitro, sequencing; the parent is a self-cleaving ribozyme

Row | Variant | self-cleavage
1 | UACGUAGGUGGUUUUCCCCUGAUAGUGCUAAGGGGGCCUGGAAGUUUGGACUGGGCAGAGCCCAACACAGCGUGGCAAACUGGCUGUGGCUAGACUGCCUCUCUGGAUUCCUCGUCACUCAGCAGGGCAUCUCUGGGAGGAAUGCC | 0.06
2 | UACGUGGGUGGUUUUCCCCUGAUAGUGCUAAGGGGGCCUGGAAGUUUGGACUGGGCAGAGCUCAACACAGCGCGGCAAGGUGGCUGUGGCUAGACUGCCUCUCUGGAUACCUCGUCACUCAGCAGGGCAUCUCUGAGAGAAAUGCC | 0.4
3 | UACGUAGGUGGUUUUCCCCUGAUAGUGCUAAGGGGGCCUGGAAGUUUGGACUGGGCAGAGCUCAACACAGCGUGGCUAAGUGGCAGUGGCUAGACUGCCUCUCUGGAUUCCUCGUCACUCAGCGGGGCAUCUCUGGGAGAAAUGCC | 0.05
4 | UACGUAGGUGGUUUUCCCCUGAUAGUGCUAAGGGGGCCUGGAAGUUUGGACUGGGCAGAGCUCAACACAGCGUGGCAAAGUGGCUGUGGCCAGACUGCCUCUCUGGAAUCCUCGUCACUCAGCAGGGCAUCUCUGAGAGAAAAGCC | 0.44
5 | UACGUAGGUGGUUUUCCCCUGAUAGUGCUAAGGGGGCCUGGAGGUUUGGACUGGGCAGAGCUCAACACACCGUGGCUAAGUGGCUGUGGCUAGCCUGCCUCUCUGGAUUCCUCGUCACUCAGCUGGGCAUCUCUGAGAGAAAUGCC | 0.15
6 | UACGUAGGUGGUUUUCCCCUGAUAGUGCUAAGGGGGCCGGGAAGCUUGGACUGGGCAGAGCUCAACACAGCGUGGCAAAGAGGCAGUGGCUAGACUGCCUCUCUGGAUUCCUCGUCACUCAGCAGGGCAUCUCUGGGAGAAAUACC | 0.06
7 | UACGUAGGUGGUUCUCCCCUGAUAGUGCUAAGGGGGGCUGGAAGUUUGGACUGGGCAGAGCUCAACACAGCGUGGCAAAGUGGCUGUGGCUAGACAGCCUCUCUGGAUUCCUCGUCACUCAGCAGGGCAUCUCUGAGAGAAAUGCC | 0
8 | UACGUAGGUGGUUUUCCCCUGAUAGUGCUAAGGGGGCCUGGGAGUUUGGACUGGGCAGAGCUCAACACAGCGUGGCAAAGUGGCUGUGGCUAGACUGCCUCUCUGGAUUCCUCGUCUCUCAGCAGGGCAUCUCUGAGAGAAACGCC | 1.58
9 | UACGUAGGUGGUUUUCCCCUGAUGGAGCUAAGGGGGCCUGGAAGUUUGGACUGGGCAGAGCUCAACACAGCGUGGCAAAGUGGCUGUGGCUAGACUGCCUCCCUGGAUUCCUCGUCACUCAGCGGGGCAUCUCUGAGAGAAAUGCC | 0.46
10 | UACGUAGGUGGUUUUCCCCUGAUAGUGCUAAGGGGGCCUGGAAGUUUGGACUGGGCAGAGCUCUACACAGCGUGGCAAAGUGGCUGUGUCUAGACUGCCUCUCUGAAUUCCUCGCCACUCAGCAGGGCAUCUCUGAGAGAAAUGCC | 0.02
11 | UACGUAGGUGGUCUUCCCCUGAUAGUGCUAAGGGGGCCUGGAAGUUUGGACUGGGCAGAGCUCAACACAGCGUGGCAAGGUGGCUGUGGCUAGACUGCCUCUCUGGAUUCCUCGUCACUCAGCAGGGCAUCUCUGAGGGAAAUGCC | 1.9
12 | UACGUGGGUGGUUUUCCCCUGAUAGUGCUAAGGGGGCCUGGAAGUUUGGGCUGGGCAGAGCUCAACACAGCGUGGCAAAGUGGCUGUGGCUAGACUGCCUCUCUGGAUUCCUCGUCACUCAGCAGGGCAUCUCUGAGGGAAAUGCC | 0
13 | UACGUAGGUGGUUUUCCCCUGAUAGUGCUAAGGGGGCCUGGAAGUUUGGACUGGGCAGAGCUCAACACAGCGUGGCAAAGUGGCUGUGGCUAGACUGCCUCUCUGGGAUCCUCGUCACUCAGCAGGGCGUCUCUGAGAGAAAUGCC | 0.37
14 | CACGUAGGUGGUUUUCCCCUGAUAGUGCUAAGGGGGCCUGGAAGUUUGGACUGGGCAGAGCUCAACACAGCGUGGCUAAGUGGCUGUGGCUAGACUGCCUCUCUGGAUUCCUCGUCACUCAGCAGGGGAUCUCUGAGAGAAAUGCC | 0.55
15 | UACGUAGGUGGUUUUCCCCUGAUAGUGCUAAGGGGGCCUGGAAGUUUGGACUGGGCAGAGCUCAACACAGCGUGGCAAAGUGGCUGUGGCUAGACAGCCUCUCUGGAUUCCUCGUCACUCAGCAGGGCGUCUCUGAGAGAAACGCC | 0.18
16 | UACGUAGGUGGUUUUCCCCUGAUAGUGCUAAGGGGGCCUGGAAGUUAGGACUGGGCAGAGCUCAACACAGCGUGGCAAAGUGGCUGUGGCUAGACUGCCUCUCUGGAUUCCUCGUCACUCGGCAGGGCACCUCUGAGAGAAAUGCC | 2.35
17 | UACGUAGGUGGUUUUCCCCUGGUAGUGCUAAGGGGGCCUGGAAGUUUGGACUGGGCUGAGCUCAACACAGCGUGGCAAAGUGGCUGUGGCUAGACUGCCUCUCCGGAUUCCUCGUCACUCAGCAGGGCAUCCCUGAGAGAAAUGCC | 0.14
18 | UACGUAGGUGGUCUUCCCCUGAUAGUGCUAAGGGGGCCUGGAAGUUUGGACUGGGCAGAGCUCAACACGGCGUGGCAAAGUGGCUGUGGCUAGACUGCCUCUCUGGACUCCUCGUCACUCAGCAGGGCAUCCCCGAGAGAAAUGCC | 0
19 | UACGUAGGUGGUCUUCCCUUGAUAGUGCUAAGGGGGCCUGGAAGUUUGGACUGGGCAGAGCUCAACACAGCGUGGCAAAGUGGCUGUGGCUAGACUGCCUCUCUGGAUUCCUCGUCACUCAGCAGGGCAUCUCUGAGAGAAGUGCC | 1.12
20 | UACGUAGGUGGUUUUCCCCUGAUAGUGCUAAGGGGGCCUGGAAGUUUGGACUGGGCAGAGCUCAACACAGCGUGGCAAAGUGGCUGUGGCUAGACUGCCUCUCUGGAUUCCUCGUCACACAGCAGGGCAUCUCUGGGGGAAAUGCC | 2.53
